# Like-named read-outs stand apart in the source and are kept apart here.
# B1: AC8scFvTATscrambled (scFv)
# scFv: [sequence of about 100 residues omitted]GGSSRSSSSGGGGSGGGGQVQLVQSGAEVKKPGSSVKVSCKASGGSFSSYAINWVRQAPGQGLEWMGGLMPIFGTTNYAQKFQDRLTITADVSTSTAYMQLSGLTYEDTAMYYCARVVADYLMGLGEAPTTVWGQGTTVTVSSASTKGGQAGQHHHHHHGAYPYDVPDYASRGRKKRRQRRR
# notes: Control antibody; also called CDR3 scrambled antibody
# B2: AC8scFvTAT2B (scFv)
# scFv: [sequence of about 100 residues omitted]GGSSRSSSSGGGGSGGGGQVQLVQSGAEVKKPGSSVKVSCKASGGSFSSYAINWVRQAPGQGLEWMGGLMPIFGTTNYAQKFQDRLTITADVSTSTAYMQLSGLTYEDTAMYYCARVAYMLEPTVTAGGLDVWGQGTTVTVSSASTKGGQAGQHHHHHHGAYPYDVPDYASGGKRRKRNPRRR
# What was measured:
# [1] = molecular target: T1, glycoprotein D of Herpes simplex virus, on HSV-1 virus (Herpes simplex virus (HSV-1 virus in …)); assay: cell-based or functional assay
# [2] = molecular target: T1, glycoprotein D of Herpes simplex virus, …; assay: cell-based or functional assay; remark: listed apart in the source
# [3] = molecular target: T1, glycoprotein D of Herpes simplex virus, …; assay: stated for the negative control in Example 8; no direct binding assay described; no inhibition in plaque assays
# [4] = molecular target: T1, glycoprotein D of Herpes simplex virus, …; assay: cell-based or functional assay; remark: listed apart in the source
# [5] = molecular target: T1, glycoprotein D of Herpes simplex virus, …; assay: cell-based or functional assay; remark: listed apart in the source
Binder,"Plaque Reduction Rate Percentage (Average plaque number per plate) at 0.2 µg/ml; virus prevention assay (cells pre-treated with antibody, washed, then HSV-1) [1]","Plaque Reduction Rate Percentage (Average plaque number per plate) at 0.6 µg/ml; virus prevention assay (cells pre-treated with antibody, washed, then HSV-1) [1]","Plaque Reduction Rate Percentage (Average plaque number per plate) at 1.9 µg/ml; virus prevention assay (cells pre-treated with antibody, washed, then HSV-1) [1]","Plaque Reduction Rate Percentage (Average plaque number per plate) at 5.6 µg/ml; virus prevention assay (cells pre-treated with antibody, washed, then HSV-1) [1]","Plaque Reduction Rate Percentage (Average plaque number per plate) at 16.7 µg/ml; virus prevention assay (cells pre-treated with antibody, washed, then HSV-1) [1]","Plaque Reduction Rate Percentage (Average plaque number per plate) at 50 µg/ml; virus prevention assay (cells pre-treated with antibody, washed, then HSV-1) [1]","Plaque Reduction Rate Percentage (Average plaque number per plate) at 50 µg/ml; virus prevention assay (cells pre-treated with antibody, washed, then HSV-1) [2]",binding result [3],"ED50; plaque reduction assay, HSV-1 neutralization in solution [4]","ED50 against HSV-1 infection; virus prevention assay (cells pre-treated with antibody, washed, then HSV-1) [4]",Plaque Reduction Rate Percentage (Average plaque number per plate) at 0.008 µg/ml; HSV-1 neutralization in solution [5],Plaque Reduction Rate Percentage (Average plaque number per plate) at 0.04 µg/ml; HSV-1 neutralization in solution [5],Plaque Reduction Rate Percentage (Average plaque number per plate) at 0.2 µg/ml; HSV-1 neutralization in solution [5],Plaque Reduction Rate Percentage (Average plaque number per plate) at 1 µg/ml; HSV-1 neutralization in solution [5],Plaque Reduction Rate Percentage (Average plaque number per plate) at 5 µg/ml; HSV-1 neutralization in solution [5],"Plaque Reduction Rate Percentage (Average plaque number per plate) at 0.2 µg/ml; virus prevention assay (cells pre-treated with antibody, washed, then HSV-1) [2]","Plaque Reduction Rate Percentage (Average plaque number per plate) at 0.6 µg/ml; virus prevention assay (cells pre-treated with antibody, washed, then HSV-1) [2]","Plaque Reduction Rate Percentage (Average plaque number per plate) at 1.9 µg/ml; virus prevention assay (cells pre-treated with antibody, washed, then HSV-1) [2]","Plaque Reduction Rate Percentage (Average plaque number per plate) at 5.6 µg/ml; virus prevention assay (cells pre-treated with antibody, washed, then HSV-1) [2]","Plaque Reduction Rate Percentage (Average plaque number per plate) at 16.7 µg/ml; virus prevention assay (cells pre-treated with antibody, washed, then HSV-1) [2]"
B1,3%,0%,0%,0%,0%,3%,0%,no binding,,,,,,,,,,,,
B2,,,,,,,99%,,~0.2 µg/mL,5.2 µg/mL,0%,0%,42%,95%,100%,0%,0%,4%,55%,93%
